# Reference: PubChem BioAssay (NCI)
# “And” between values parts separate entries of the source, which are not always exact repeats. Equal values may be shown once.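 Cells were grown in 96-well plates and exposed to each compound for 48 hours at five concentrations; endpoints were interpolated linearly between bracketing concentrations, or set to the highest concentration if not reached. Here, GI50 denotes the concentration required for 50% inhibition of growth. TGI: total growth inhibition.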
# Test system: NCI-H322M lung
# Assay: inhibition of tumour cell growth, NCI panel, 48 h
SMILES,TGI,GI50
CC(C)(C)OC(=O)N1C(C2=COc3ccccc3O2)=COc2cccnc21,4.62 µM,
Cc1cc2c(cc1Cl)SC(NN(C)C)=NS2(=O)=O,> 10 µM,
C[CH2][Sn]1([CH2]C)[O]C2C(O)OC(CO)C(O)C2[O]1 (stereo unspecified),> 100 µM,> 100 µM
C[C@H](Nc1ccc(C#N)n(C)c1=O)c1cc2cc(Cl)ccc2[nH]c1=O,> 100 µM,38.4 µM
Clc1ccc(NCc2nnc(COc3ccc(OCc4nnc(CNc5ccc(Cl)cc5)o4)c(Cl)c3)o2)cc1,> 100 µM,
O=S1Cc2ccccc2CS1 (stereo unspecified),> 100 µM,
COc1cccc(N=N/C(=N/NC(=O)c2cc(Cl)ccc2O)c2ccc(N(CCC#N)CCC#N)cc2C)c1,> 100 µM,
Cc1cc(O)c2c(c1O)C(=O)c1c(O)ccc(O)c1C2=O,> 100 µM,
COc1ccc2cc(-c3ccc(OC)c(OC)c3)c(=O)oc2c1,> 100 µM,
N#Cc1cc(-c2ccccc2)[nH]c1-c1nccc2ccccc12,> 100 µM,53.9 µM
COc1ccc(NC(=O)CSc2nnc(Cc3ccccc3)o2)cc1,> 100 µM,
CC(=O)Oc1ccn2nc(C)c(Cc3c(C)nn4ccc(OC(C)=O)cc34)c2c1,> 100 µM,
Cc1cc(N2CCOCC2)nc(N(CCCNc2ccnc3cc(Cl)ccc23)Cc2ccc3c(c2)OCO3)n1,5.91 µM,1.9 µM
COC(=O)c1c2c(c[n+]([O-])c1C)C(=O)C(NCc1ccccc1)=CC2=O,1.59 µM,0.577 µM
COc1ccc(Cc2cc(OC)c(OC)c(OC)c2)cc1O,> 100 µM,
NCCCCN,> 100 µM,
Nc1sccc1S(=O)(=O)c1ccsc1N,> 100 µM,
COc1ccc(C2Cc3cc(OC)c(OC)c(OC)c3C2=O)cc1 (stereo unspecified),> 100 µM,
CCOC(=O)[C@H](Cc1ccccc1)NC(=O)c1nc[nH]c1[N+](=O)[O-],> 100 µM,
NC(CCc1ccccc1)(C(=O)O)c1ccccc1 (stereo unspecified),> 100 µM,
NC(Cc1cc(Br)c(O)c(Br)c1)C(=O)O (stereo unspecified),> 100 µM,
COC(=O)C(=C\Sc1ccccc1)/C=C/C(=O)OC(C)(C)C,33.7 µM,
COC(=N)C(C)C,> 100 µM,
Nc1nc(N)nc(-c2cnc3ccccc3c2)n1,> 100 µM,
COC(=O)/C=C1/OC(c2ccc(Br)cc2)=C(Br)C1=O,28.9 µM,
NC(=O)c1cccc(N)c1,> 100 µM,> 100 µM
CCOC(=O)CC/C(C)=N\n1c(Cc2ccc(Cl)cc2)n[nH]c1=O,> 100 µM,

SMILES,TGI,GI50
CCCCCCCCCCCCCCCCc1c(C(=O)OC)[nH]c(=S)[nH]c1=O,> 50 µM,
Nc1cc(OCc2ccccc2)c(OCc2ccccc2)cc1C=O,> 100 µM,
COC(=O)C1=C(C(=O)Nc2cccnc2)C2OC1(C(Cc1ccccc1)Oc1ccccc1)C1OC21 (stereo unspecified),41.6 µM,18.3 µM
O=C(O)c1cnccc1-c1cc(=O)[nH]n1-c1ccccc1,> 100 µM,
CCN1CCN(CCNc2nccc(-c3c(-c4cccc(O)c4)nc4sccn34)n2)S1(=O)=O,32.5 µM and > 100 µM,21.5 µM and 11.2 µM
O=C1C(CN(Cc2ccccc2)Cc2ccccc2)CCCC1CN(Cc1ccccc1)Cc1ccccc1 (stereo unspecified),> 100 µM,
CCOC(=O)NC(=O)c1cn(CCCCCCCCCCC(=O)N2CCN(CCn3cc(C(=O)NC(=O)OCC)c(=O)[nH]c3=O)CC2)c(=O)[nH]c1=O,> 100 µM,
C=C1CCCC(C)(C)[C@@H]1CC/C(C)=C/Cn1c2cccc(=O)c-2nc2ccccc21,,17.9 µM
COC(=O)C(C(=O)C(=O)Nc1c(Cl)cc([N+](=O)[O-])cc1Cl)c1nc2cc(C)c(C)cc2[nH]c1=O (stereo unspecified),> 100 µM,
CCOC(=O)CCC(NC(=O)N1CCN(c2c(C)nc(C)[nH]c2=O)CC1)C(=O)OCC (stereo unspecified),> 100 µM,
O=c1oc2ccccc2c(-c2ccc(O)cc2)c1Oc1ccc(Cl)cc1,> 100 µM,
Cc1cc(C)c2c(=O)n(CN3CCN(c4ccccc4)CC3)sc2n1,> 100 µM,
Cn1c(=O)c2[nH]c(/N=N\n3ccc4ccccc43)nc2n(C)c1=O,> 100 µM,
CC1=NN(c2cccc(Cl)c2)C(=N/c2nc3ccccc3s2)/C1=C\C=C\c1ccccc1,> 100 µM,
CCS(=O)(=O)c1ccc(OC)c(Nc2ncc(-c3cccc(-c4ccccc4F)c3)o2)c1,> 25 µM,9.86 µM
CC(C)c1ccc2c(c1)[C@@]1(C)CC[C@H](C)C(C)(C)C1CC2 (stereo partly specified),32.1 µM,
Cn1c2c(c3c(=O)[nH]ncc31)CCc1ccccc1-2,> 100 µM,
Oc1ccc(Cl)cc1Cc1cc(Cl)cc(Cc2cc(Cl)ccc2O)c1O,9.73 µM,
Clc1cccc(Cn2cc(Cc3cn(Cc4cccc(Cl)c4)c4ccccc34)c3ccccc32)c1,> 100 µM,> 100 µM
COc1cc2c3c(n(CCCN=[N+]=[N-])c(=O)c2cc1OC)-c1ccc(N)cc1C3=O,2.08 µM,0.483 µM
CCCCCCOC(=O)C(N)Cc1ccc(OC)cc1 (stereo unspecified),> 100 µM,
CCCCCCCCC(=O)CCCCCCCCC(=O)O,47.9 µM,
O=S(=O)(c1ccc2c(c1)C(=NO)c1cc(S(=O)(=O)N3CCCCC3)ccc1-2)N1CCCCC1,0.304 µM,0.167 µM
COc1ccc(C2=C(Br)C(=O)OC2)cc1Cl,65.3 µM,21.9 µM
NC1=NN(c2ccccc2)C(=O)C1C(=O)C(=O)NC1C2CC3CC(C2)CC1C3 (stereo unspecified),> 100 µM,
CC(C)N(CCCNc1c2ccccc2nc2cccc([N+](=O)[O-])c12)C(C)C,15.4 µM,
